# “And” between values parts separate entries of the source, which are not always exact repeats. Equal values may be shown once. Among all 390,000 compounds or so, about 4,000 (1%) were called active. Inconclusive results, whose numbers are uncertain, are shown with a selection of clear calls. The call rests on the fitted dose curve; in most records, active means well fitted inhibition curve with a large enough effect; inconclusive means small, poorly fitted or top-dose-only effect; inactive means no such curve, though single readings can be large or run the other way. Potencies beside an inconclusive call are fits to weak or partial responses and may not hold up.
# Biological target: Thioredoxin reductase 1, cytoplasmic (Rattus norvegicus) (UniProt O89049)
# Sequence of UniProt O89049 (O89049 whole entry, looked up): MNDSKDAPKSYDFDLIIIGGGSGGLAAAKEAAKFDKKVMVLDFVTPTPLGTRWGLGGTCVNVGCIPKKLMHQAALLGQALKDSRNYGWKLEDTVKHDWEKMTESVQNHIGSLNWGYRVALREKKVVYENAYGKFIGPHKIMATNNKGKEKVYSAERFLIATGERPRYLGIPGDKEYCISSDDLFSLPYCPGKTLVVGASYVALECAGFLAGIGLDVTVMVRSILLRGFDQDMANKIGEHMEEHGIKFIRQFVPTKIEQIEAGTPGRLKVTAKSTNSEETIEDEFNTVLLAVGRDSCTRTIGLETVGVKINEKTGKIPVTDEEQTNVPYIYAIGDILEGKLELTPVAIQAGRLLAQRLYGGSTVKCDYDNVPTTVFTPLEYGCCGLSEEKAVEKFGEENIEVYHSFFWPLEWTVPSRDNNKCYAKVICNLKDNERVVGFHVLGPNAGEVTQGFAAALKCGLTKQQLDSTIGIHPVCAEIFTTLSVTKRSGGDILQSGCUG
# Experiment: qHTS Assay for Inhibitors of Mammalian Selenoprotein Thioredoxin Reductase 1 (TrxR1): qHTS; further: nearly all actives have a fitted effect of over 65% in size
# Settings: recombinant rTrxR1, NADPH fluorescence consumption, selenite substrate; series mostly up to 114 µM; activity change, negative = inhibition: at the top concentration
# Outline: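 Rat TrxR1 (90 nM in the dispensed reagent) was pre-reduced with 400 uM NADPH for 5 min at room temperature, then incubated with compound for 15 min. After 400 uM selenite was added, NADPH fluorescence (Ex 340/Em 450 nm) was followed for 8 min.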
# On the % scale 0 is the no-effect control and ±100 the full control effect; potency means the concentration at half of the fitted maximal effect; tags describe the fitted curve by direction and shape.
Compound,Potency,"activity change, negative = inhibition"
C=CCOc1c(Cl)cc(CNc2ccc3[nH]c(=O)[nH]c3c2)cc1OC,"inconclusive: 10 µM [inhibitor, partial curve, poor fit]",
CCN1CCN(S(=O)(=O)c2cnc(Cl)c(Br)c2)CC1,"inconclusive: 50.1 µM [inhibitor, partial curve, poor fit]",
CNCC(O)c1cc(OCc2ccccc2)c(OCc2ccccc2)cc1F (centres undefined),"inconclusive: 44.7 µM [inhibitor, partial curve]",
Cc1ccc(N2C(=O)NC(=O)/C(=C\c3ccc(N4CCOCC4)cc3)C2=O)cc1,"inconclusive: 14.1 µM [inhibitor, full curve]",
CCC(=NCc1cc(OC)cc(OC)c1)c1c(O)n(C)c(=O)n(C)c1=O,,inactive: 5.82%
Cc1ccnc(NC(=O)CCCc2ccc(N(CCCl)CCCl)cc2)n1,"inconclusive: 22.4 µM [inhibitor, partial curve]",
c1cncc(C2Nc3cccc4cccc(c34)N2)c1,"inconclusive: 89.1 µM [inhibitor, single point]",
COc1cccc(-n2c(CN3CCN(C)CC3)nc3ccc([N+](=O)[O-])cc3c2=O)c1,"inconclusive: 44.7 µM [inhibitor, partial curve, poor fit]",
Cc1cc(/C=C2\C(=O)NC(=S)N(C)C2=O)c(C)n1C1CCCCC1,"inconclusive: 79.4 µM [inhibitor, partial curve]",
COCCCNC(=O)CC1C[C@H](C(=O)N2CCCCC2)[C@@]2(CCc3ccccc3)c3[nH]c4ccccc4c3CCN2C1=O (some centres undefined),"inconclusive: 79.4 µM [inhibitor, partial curve, poor fit]",
Cc1cccc(-n2c(O)c(/C=C3/C(c4ccccc4)=Nc4ccccc43)c(=O)[nH]c2=O)c1,,inactive: -26.8%
CC(=O)OC1CCC2(C)C(=CC(=O)C3C2CCC2(C)C(OC(C)=O)CCC32)C1 (centres undefined),"inconclusive: 4.47 µM [inhibitor, single point]",
Clc1cccc(N2CCNCC2)n1,"inconclusive: 31.6 µM [inhibitor, single point]",
Cc1ccccc1C1=NCC(=O)N(CC(=O)NCc2ccco2)c2sc3c(c21)CCCC3,"inconclusive: 39.8 µM [inhibitor, partial curve]",
C[C@]1(O)CCC2C3CC[C@@H]4CC(=O)CC[C@]4(C)C3CC[C@@]21C (some centres undefined),,inactive: 9.15% [at 57.1 µM]
CC(C)CC1C(C#N)=C(N)Oc2c1c(=O)oc1ccccc21 (centres undefined),,inactive: -15.7%
COC(=O)C1=Nc2ccccc2/C1=C\c1c(O)n(-c2cc(OC)ccc2OC)c(=O)[nH]c1=O,"inconclusive: 22.4 µM [inhibitor, full curve, poor fit]",
CC(C)CN(CC(C)C)c1ccc(C=C2C(=O)NC(=S)NC2=O)cc1[N+](=O)[O-],active: 2.51 µM,
O=C(CN1CCOCC1)c1cccc2ccccc12,active: 17.8 µM,
Cn1c(=O)c2c(nc(N/N=C/c3c(O)n(-c4ccccc4)c(=S)[nH]c3=O)n2C)n(C)c1=O,"inconclusive: 20 µM [inhibitor, full curve]",
Cc1cc(C)nc(NS(=O)(=O)c2ccc(NC(=S)NC(=O)C3CCCC3)cc2)n1,"inconclusive: 6.31 µM [inhibitor, full curve, poor fit]",
CCOC(=O)C1(c2ccccc2)CCN(CC(=O)c2ccc(NC(C)=O)cc2)CC1,"inconclusive: 20 µM [inhibitor, full curve]",

Compound,Potency,"activity change, negative = inhibition"
CCOC(=O)c1cc(CC)sc1/N=C/c1c(O)[nH]c(=S)[nH]c1=O,"inconclusive: 35.5 µM [inhibitor, partial curve, poor fit]",
CN1C(=O)NC(=O)/C(=C/c2ccc(C(=O)O)cc2)C1=O,"inconclusive: 35.5 µM [inhibitor, partial curve]",
NNCc1cccc(O)c1,"inconclusive: 44.7 µM [inhibitor, partial curve]",
Cc1cc(/C=C2\C(=O)NC(=O)N(Cc3ccccc3)C2=O)c(C)n1-c1ccc(Cl)c(C(=O)O)c1,"inconclusive: 25.1 µM [inhibitor, partial curve, poor fit]",
Cc1cc(/C=C2/C(=O)NC(=O)N(Cc3ccco3)C2=O)c(C)n1-c1ccc(C(=O)O)cc1,"inconclusive: 79.4 µM [inhibitor, partial curve, poor fit]",
Cc1cc(C(C)(C)C)cc(C)c1CC1=NCCN1,"inconclusive: 79.4 µM [inhibitor, partial curve, poor fit] and inconclusive: 4.23 µM [inhibitor, full curve]",
COc1cc(CC(C)N)c(OC)cc1I (centres undefined),inactive,
CC(=O)c1ccc(OC(NC(=O)c2ccco2)C(Cl)(Cl)Cl)cc1 (centres undefined),"inconclusive: 31.6 µM [inhibitor, partial curve, poor fit]",
COc1ccccc1N=Cc1c(O)n(C)c(=O)n(C)c1=O,,inactive: -8.14%
COc1ccccc1N=Nc1c(O)[nH]c(=S)[nH]c1=O,,inactive: -6.81% [at 57.1 µM]
Cc1cc(C=C2C(=O)NC(=S)NC2=O)c(C)n1C1CCCC1,"inconclusive: 20 µM [inhibitor, single point]",
CCOC(=O)N1CCN(/[N+]([O-])=N/Oc2ccc([N+](=O)[O-])cc2[N+](=O)[O-])CC1C (centres undefined),"inconclusive: 12.6 µM [inhibitor, partial curve, poor fit]",
O=CC1=C(N2CCOCC2)/C(=C\c2ccccc2)CC1,"inconclusive: 50.1 µM [inhibitor, partial curve]",
CCC(=NCc1ccco1)c1c(O)n(C2CCCCC2)c(=O)[nH]c1=O,"inconclusive: 50.1 µM [inhibitor, partial curve, poor fit]",
O=C(O)/C=C/c1ccc2c(c1)OCO2,,inactive: 3.16%
COc1cc(C=C2C(=O)NC(=O)NC2=O)cc(OC)c1OC,"inconclusive: 17.8 µM [inhibitor, full curve]",
CN1C2CCC1CC(OC(c1ccccc1)c1ccc(Cl)cc1)C2 (centres undefined),"inconclusive: 0.0238 µM [inhibitor, full curve, poor fit]",
CCOC(=O)C1CCN(/C=C2\C(=O)NC(=S)N(CC)C2=O)CC1,"inconclusive: 89.1 µM [inhibitor, single point]",
O=C(Nc1nccs1)c1c(O)c2c(n(Cc3ccco3)c1=O)CCCC2,"inconclusive: 89.1 µM [inhibitor, single point]",
Nc1cncc(C(=O)O)c1,inactive,
CCCCCCC(C)(C)c1ccc([C@@H]2C[C@H](O)CC[C@H]2CCCO)c(O)c1,"inconclusive: 50.1 µM [inhibitor, partial curve] and inconclusive: 26.7 µM [inhibitor, partial curve, poor fit]",
Clc1ccc(N2CCNCC2)nn1,,inactive: -4.27% [at 57.1 µM]

Compound,Potency,"activity change, negative = inhibition"
CCOC(=O)C1(c2ccccc2)Oc2ccccc2C(c2ccc(OC)cc2)=C1C(=O)OC (centres undefined),"inconclusive: 50.1 µM [inhibitor, partial curve]",
O=[N+]([O-])c1ccc(Cl)c([N+](=O)[O-])c1,active: 2.82 µM,
COc1ccccc1/C=C1\C(=O)NC(=S)N(c2ccccc2)C1=O,"inconclusive: 3.55 µM [inhibitor, full curve]",
O=C1/C(=C/c2ccc([N+](=O)[O-])cc2)N2CCC1CC2,"inconclusive: 70.8 µM [inhibitor, single point]",
Cc1c(C)n(O)c2ccc3nonc3c12,"inconclusive: 17.8 µM [inhibitor, partial curve, poor fit]",
CC1=Nc2ccccc2/C1=C/c1c(O)[nH]c(=O)[nH]c1=O,"inconclusive: 17.8 µM [inhibitor, full curve]",
C=C1C=C(C(F)F)n2ncc(C(=O)NCc3ccccc3F)c2N1,"inconclusive: 56.2 µM [inhibitor, partial curve, poor fit]",
O=C1NC(=O)C2(Cc3ccccc3N3CCCC32)C(=O)N1Cc1ccccc1 (centres undefined),"inconclusive: 79.4 µM [inhibitor, single point]",
Nc1nonc1C(=O)N/N=C/c1ccc([N+](=O)[O-])o1,"inconclusive: 12.6 µM [inhibitor, partial curve]",
COC(=O)C1=C(c2cc3ccccc3o2)C[C@@H]2CC[C@H]1N2C(=O)NCc1ccco1,"inconclusive: 56.2 µM [inhibitor, partial curve, poor fit]",
CC1=CC2/C=C(\C)CCC(O)C(O)/C=C/C(=O)C23C(=O)NC(CC(C)C)C3C1C (centres undefined),active: 15.8 µM,
COc1cccc2c1O[C@H]1C(=O)CC[C@H]3CN(C)CCC231 (some centres undefined),,inactive: 14.5% [at 57.1 µM]
Cc1cc(=O)oc2c(C)c(OC3CCCCC3=O)ccc12 (centres undefined),"inconclusive: 17.8 µM [inhibitor, partial curve, poor fit]",
O=C1NC(=O)C(=Cc2ccc(N3CCOCC3)o2)C(=O)N1,"inconclusive: 56.2 µM [inhibitor, partial curve, poor fit]",
Cn1c(O)c(/C=N/NC(=O)c2ccncc2)c(=O)[nH]c1=S,,inactive: -16.4%
O=C1NC(=O)C(=Cc2ccc(N3CCOCC3)cc2)C(=O)N1,"inconclusive: 28.2 µM [inhibitor, partial curve, poor fit]",
O=C(O)CNC1c2ccccc2CSc2ccccc21 (centres undefined),"inconclusive: 79.4 µM [inhibitor, partial curve, poor fit]",
CC(CC(C)(C)N1CC1)=NNC(=O)Nc1cccc2ccccc12,"inconclusive: 89.1 µM [inhibitor, partial curve, poor fit]",
CCN(CC)c1ccc(/C=C2\C(=O)NC(=O)N(CC3CCCO3)C2=O)cc1 (centres undefined),"inconclusive: 14.1 µM [inhibitor, full curve]",
O=C(c1ccc2c(c1)N(Cc1c(F)cccc1Cl)C(=O)c1ccccc1S2)N1CCC2(CC1)OCCO2,,inactive: 2.64%

# Source: PubChem BioAssay AID588453 (National Center for Advancing Translational Sciences (NCATS), 2011)
